# Reference: patent publication US20250002588A1 (DIAGONAL THERAPEUTICS, published 2025)
# Read-outs that look alike come from different tables or passages of the source.
# Tests used:
# Assay in all cases: cell-based or functional assay
# [1] = biological target: T1, ALK-1/BMPR-2 receptor pair of the PathHunter U2Os dimerization cells (DiscoverX 93-0962C3) (UniProt P37023 22-503; Q13873 27-1038)
# [2] = biological target: T1, ALK-1/BMPR-2 receptor pair of the …; remark: listed apart in the source
# [3] = biological target: T1, ALK-1/BMPR-2 receptor pair of the …; remark: listed apart in the source
# T1 sequence (P37023 22-503, chain 1 of 2): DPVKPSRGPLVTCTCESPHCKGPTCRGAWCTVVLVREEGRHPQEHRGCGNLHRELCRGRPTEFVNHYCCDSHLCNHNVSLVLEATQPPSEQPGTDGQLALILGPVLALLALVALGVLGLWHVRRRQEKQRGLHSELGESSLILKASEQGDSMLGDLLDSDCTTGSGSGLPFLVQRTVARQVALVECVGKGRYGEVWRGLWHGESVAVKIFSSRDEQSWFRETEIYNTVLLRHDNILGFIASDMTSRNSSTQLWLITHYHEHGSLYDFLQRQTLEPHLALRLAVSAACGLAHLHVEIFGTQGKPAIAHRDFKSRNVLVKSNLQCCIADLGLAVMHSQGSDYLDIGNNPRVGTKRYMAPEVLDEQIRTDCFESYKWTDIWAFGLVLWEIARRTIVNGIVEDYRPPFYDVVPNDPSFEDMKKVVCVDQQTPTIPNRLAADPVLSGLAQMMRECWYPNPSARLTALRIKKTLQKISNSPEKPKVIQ
# T1 sequence (Q13873 27-1038, chain 2 of 2, further chain): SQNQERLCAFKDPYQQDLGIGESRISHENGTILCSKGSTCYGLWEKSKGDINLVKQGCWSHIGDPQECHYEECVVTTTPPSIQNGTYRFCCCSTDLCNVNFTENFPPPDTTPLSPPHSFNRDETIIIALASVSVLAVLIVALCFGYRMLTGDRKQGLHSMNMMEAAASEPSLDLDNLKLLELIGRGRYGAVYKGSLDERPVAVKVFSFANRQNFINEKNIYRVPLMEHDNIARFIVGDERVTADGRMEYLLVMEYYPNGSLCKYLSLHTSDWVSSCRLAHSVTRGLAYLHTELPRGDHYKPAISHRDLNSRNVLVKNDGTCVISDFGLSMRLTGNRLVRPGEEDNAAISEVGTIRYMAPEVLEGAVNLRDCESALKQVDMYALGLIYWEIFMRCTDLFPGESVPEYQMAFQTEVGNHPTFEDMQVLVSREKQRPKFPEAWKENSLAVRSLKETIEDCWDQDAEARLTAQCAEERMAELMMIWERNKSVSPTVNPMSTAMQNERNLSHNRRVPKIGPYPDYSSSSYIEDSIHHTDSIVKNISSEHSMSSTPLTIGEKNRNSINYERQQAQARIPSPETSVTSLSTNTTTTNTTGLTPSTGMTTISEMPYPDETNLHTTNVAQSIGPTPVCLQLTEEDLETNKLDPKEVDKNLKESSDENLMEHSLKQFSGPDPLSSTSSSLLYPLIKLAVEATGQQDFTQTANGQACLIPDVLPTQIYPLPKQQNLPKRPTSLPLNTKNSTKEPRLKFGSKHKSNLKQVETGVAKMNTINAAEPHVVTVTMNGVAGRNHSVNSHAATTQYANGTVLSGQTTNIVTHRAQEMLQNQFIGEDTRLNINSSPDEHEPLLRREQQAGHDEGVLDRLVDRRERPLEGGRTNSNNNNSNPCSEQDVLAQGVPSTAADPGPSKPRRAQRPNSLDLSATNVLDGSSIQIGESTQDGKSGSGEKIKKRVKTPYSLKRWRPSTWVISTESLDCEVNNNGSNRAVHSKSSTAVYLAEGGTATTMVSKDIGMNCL
Binder,% Emax BMP9 [1] [%],EC50 [1] [nM],EMAX (RLU) [1] [RLU],% Emax BMP9 [2] [%],% Emax BMP9 [3] [%]
"DGL289 (bispecific antibody, human IgG1, lambda) heavy: EVQLLESGGGLVQPGGSLRLSCAASGFTFSIYAMSWVRQAPGKGLEWVSAISGSGGSTYYADSVKGRFTISRDNSKNTLYLQMNSLRAEDTAVYYCARDFDYWGQGTLVTVTSSPAPNLLGGPEVQLLESGGGLVQPGGSLRLSCAASGFTFSNAWMNWVRQAPGKGLEWVSSISSSSSYIYYADSVKGRFTISRDNSKNTLYLQMNSLRAEDTAVYYCARAVAAGGMFWGLDQWGQGTLVTVTSSASTKGPSVFPLAPSSKSTSGGTAALGCLVKDYFPEPVTVSWNSGALTSGVHTFPAVLQSSGLYSLSSVVTVPSSSLGTQTYICNVNHKPSNTKVDKKV[human IgG1 Fc with L234A L235A G237A (EU numbers) omitted here] light: QSVLTQPPSASGTPGQRVTISCSGSSSNIGSNYVYWYQQLPGTAPKLLIYGNINRPSGVPDRFSGSKSGTSASLAISGLRSEDEADYYCAAWDDSLNGRVFGGGTKLTVLPAPNLLGGPQSVLTQPPSASGTPGQRVTISCSGSRSNIGSNSVHWYQQLPGTAPKLLIYGNSNRPSGVPDRFSGSKSGTSASLAISGLRSEDEADYYCQSYDSSLNDHVVFGGGTKLTVLGQPKAAPSVTLFPPSSEELQANKATLVCLISDFYPGAVTVAWKADSSPVKAGVETTTPSKQSNNKYAASSYLSLTPEQWKSHRSYSCQVTHEGSTVEKTVAPTECS",68,2.4,1.8e+06,–,–
"DGL291 (bispecific antibody, human IgG1, lambda) heavy: EVQLLESGGGLVQPGGSLRLSCAASGFTFSSYAMSWVRQAPGKGLEWVANINQDGSEKNYVDSMRGRFTISRDNSKNTLYLQMNSLRAEDTAVYYCAREFDYWGQGTLVTVTSSPAPNLLGGPEVQLLESGGGLVQPGGSLRLSCAASGFTFSDYYMTWIRQAPGKGLEWVSSISGGSTYYADSRKGRFTISRDNSENTLYLQMNSLRAEDTAVYYCARDFGVAGWFGQYGMDVWGQGTLVTVSSASTKGPSVFPLAPSSKSTSGGTAALGCLVKDYFPEPVTVSWNSGALTSGVHTFPAVLQSSGLYSLSSVVTVPSSSLGTQTYICNVNHKPSNTKVDKKV[human IgG1 Fc with L234A L235A G237A (EU numbers) omitted here] light: QSVLAQPPSASGTPGQRVTISCSGSSSNIGSNYVYWYQQLPGTAPKLLIYGNNKRPSGVPDRFSGSKSGTSASLAISGLRSEDEADYYCAAWDDSLNGRVFGGGTKLTVLPAPNLLGGPQSVLTQPPSASGTPGQRVTISCTGSSSNIGAGYDVHWYQQLPGTAPKLLIYRSNQRPSGVPDRFSGSKSGTSASLAISGLRSEDEADYYCSSYAGNYNLVFGGGTKLTVLGQPKAAPSVTLFPPSSEELQANKATLVCLISDFYPGAVTVAWKADSSPVKAGVETTTPSKQSNNKYAASSYLSLTPEQWKSHRSYSCQVTHEGSTVEKTVAPTECS",36,0.2,952000,–,–
"DGL290 (bispecific antibody, human IgG1, lambda) heavy: EVQLLESGGGLVQPGGSLRLSCAASGFTFSNAWMNWVRQAPGKGLEWVSSISSSSSYIYYADSVKGRFTISRDNSKNTLYLQMNSLRAEDTAVYYCARAVAAGGMFWGLDQWGQGTLVTVTSSPAPNLLGGPEVQLLESGGGLVQPGGSLRLSCAASGFTFSIYAMSWVRQAPGKGLEWVSAISGSGGSTYYADSVKGRFTISRDNSKNTLYLQMNSLRAEDTAVYYCARDFDYWGQGTLVTVTSSASTKGPSVFPLAPSSKSTSGGTAALGCLVKDYFPEPVTVSWNSGALTSGVHTFPAVLQSSGLYSLSSVVTVPSSSLGTQTYICNVNHKPSNTKVDKKV[human IgG1 Fc with L234A L235A G237A (EU numbers) omitted here] light: QSVLTQPPSASGTPGQRVTISCSGSRSNIGSNSVHWYQQLPGTAPKLLIYGNSNRPSGVPDRFSGSKSGTSASLAISGLRSEDEADYYCQSYDSSLNDHVVFGGGTKLTVLPAPNLLGGPQSVLTQPPSASGTPGQRVTISCSGSSSNIGSNYVYWYQQLPGTAPKLLIYGNINRPSGVPDRFSGSKSGTSASLAISGLRSEDEADYYCAAWDDSLNGRVFGGGTKLTVLGQPKAAPSVTLFPPSSEELQANKATLVCLISDFYPGAVTVAWKADSSPVKAGVETTTPSKQSNNKYAASSYLSLTPEQWKSHRSYSCQVTHEGSTVEKTVAPTECS",69,5.3,1.82e+06,–,–
"DGL292 (bispecific antibody, human IgG1, lambda) heavy: EVQLLESGGGLVQPGGSLRLSCAASGFTFSDYYMTWIRQAPGKGLEWVSSISGGSTYYADSRKGRFTISRDNSENTLYLQMNSLRAEDTAVYYCARDFGVAGWFGQYGMDVWGQGTLVTVSSPAPNLLGGPEVQLLESGGGLVQPGGSLRLSCAASGFTFSSYAMSWVRQAPGKGLEWVANINQDGSEKNYVDSMRGRFTISRDNSKNTLYLQMNSLRAEDTAVYYCAREFDYWGQGTLVTVTSSASTKGPSVFPLAPSSKSTSGGTAALGCLVKDYFPEPVTVSWNSGALTSGVHTFPAVLQSSGLYSLSSVVTVPSSSLGTQTYICNVNHKPSNTKVDKKV[human IgG1 Fc with L234A L235A G237A (EU numbers) omitted here] light: QSVLTQPPSASGTPGQRVTISCTGSSSNIGAGYDVHWYQQLPGTAPKLLIYRSNQRPSGVPDRFSGSKSGTSASLAISGLRSEDEADYYCSSYAGNYNLVFGGGTKLTVLPAPNLLGGPQSVLAQPPSASGTPGQRVTISCSGSSSNIGSNYVYWYQQLPGTAPKLLIYGNNKRPSGVPDRFSGSKSGTSASLAISGLRSEDEADYYCAAWDDSLNGRVFGGGTKLTVLGQPKAAPSVTLFPPSSEELQANKATLVCLISDFYPGAVTVAWKADSSPVKAGVETTTPSKQSNNKYAASSYLSLTPEQWKSHRSYSCQVTHEGSTVEKTVAPTECS",74,0.09,1.96e+06,57,60
"DGL812 (bispecific antibody, human IgG1, lambda) heavy: EVQLLESGGGLVQPGGSLRLSCAASGFTFSDYYMTWIRQAPGKGLEWVSSISGGSTYYADSRKGRFTISRDNSENTLYLQMNSLRAEDTAVYYCARDFGVAGWFGQYGMDVWGQGTLVTVSSPAPNLLGGPEVQLLESGGGLVQPGGSLRLSCAASGFTFSSYAMSWVRQAPGKGLEWVANINQDGSEKNYVDSMRGRFTISRDNSKNTLYLQMNSLRAEDTAVYYCAREFDYWGQGTLVTVTSSASTKGPSVFPLAPSSKSTSGGTAALGCLVKDYFPEPVTVSWNSGALTSGVHTFPAVLQSSGLYSLSSVVTVPSSSLGTQTYICNVNHKPSNTKVDKKV[human IgG1 Fc with L234A L235A G237A (EU numbers) omitted here] light: QSVLTQPPSASGTPGQRVTISCTGSSSNIGAGYDVHWYQQLPGTAPKLLIYRSNQRPSGVPDRFSGSKSGTSASLAISGLRSEDEADYYCSSYAGNYNLVFGGGTKLTVLPLAPQSVLAQPPSASGTPGQRVTISCSGSSSNIGSNYVYWYQQLPGTAPKLLIYGNNKRPSGVPDRFSGSKSGTSASLAISGLRSEDEADYYCAAWDDSLNGRVFGGGTKLTVLGQPKAAPSVTLFPPSSEELQANKATLVCLISDFYPGAVTVAWKADSSPVKAGVETTTPSKQSNNKYAASSYLSLTPEQWKSHRSYSCQVTHEGSTVEKTVAPTECS",–,–,–,62,–
"DGL811 (bispecific antibody, human IgG1, lambda) heavy: EVQLLESGGGLVQPGGSLRLSCAASGFTFSDYYMTWIRQAPGKGLEWVSSISGGSTYYADSRKGRFTISRDNSENTLYLQMNSLRAEDTAVYYCARDFGVAGWFGQYGMDVWGQGTLVTVSSPLAPEVQLLESGGGLVQPGGSLRLSCAASGFTFSSYAMSWVRQAPGKGLEWVANINQDGSEKNYVDSMRGRFTISRDNSKNTLYLQMNSLRAEDTAVYYCAREFDYWGQGTLVTVTSSASTKGPSVFPLAPSSKSTSGGTAALGCLVKDYFPEPVTVSWNSGALTSGVHTFPAVLQSSGLYSLSSVVTVPSSSLGTQTYICNVNHKPSNTKVDKKV[human IgG1 Fc with L234A L235A G237A (EU numbers) omitted here] light: QSVLTQPPSASGTPGQRVTISCTGSSSNIGAGYDVHWYQQLPGTAPKLLIYRSNQRPSGVPDRFSGSKSGTSASLAISGLRSEDEADYYCSSYAGNYNLVFGGGTKLTVLPAPNLLGGPQSVLAQPPSASGTPGQRVTISCSGSSSNIGSNYVYWYQQLPGTAPKLLIYGNNKRPSGVPDRFSGSKSGTSASLAISGLRSEDEADYYCAAWDDSLNGRVFGGGTKLTVLGQPKAAPSVTLFPPSSEELQANKATLVCLISDFYPGAVTVAWKADSSPVKAGVETTTPSKQSNNKYAASSYLSLTPEQWKSHRSYSCQVTHEGSTVEKTVAPTECS",–,–,–,73,–
